Results are given in words; binding and its absence hold for the method and conditions named. Some entries that bind do so weakly or less than the wild type.
Tests used:
[1] = biological target: type 2C-A protein phosphatase ABI1 (Arabidopsis) (UniProt P49597); test: AlphaScreen or HTRF; as a1 but with quinabactin instead of ABA (100 μM in Fig. 2b, dose series in Fig. 2c); signal relative to 1% DMSO
[2] = biological target: type 2C-A protein phosphatase ABI1 (Arabidopsis) (UniProt P49597); test: AlphaScreen or HTRF; as a1 but with ABA (10 μM in Fig. 1b, concentration series in Fig. 1c,d, 100 μM in Fig. 1e)
[3] = biological target: T1, type 2C-A protein phosphatase HAI2 (Arabidopsis) (UniProt Q9LNW3); test: AlphaScreen or HTRF; as a1/a2 (Fig. 1e, absence or presence of 100 μM ABA); the sentence does not tell in which condition the pair was detected
T1 sequence: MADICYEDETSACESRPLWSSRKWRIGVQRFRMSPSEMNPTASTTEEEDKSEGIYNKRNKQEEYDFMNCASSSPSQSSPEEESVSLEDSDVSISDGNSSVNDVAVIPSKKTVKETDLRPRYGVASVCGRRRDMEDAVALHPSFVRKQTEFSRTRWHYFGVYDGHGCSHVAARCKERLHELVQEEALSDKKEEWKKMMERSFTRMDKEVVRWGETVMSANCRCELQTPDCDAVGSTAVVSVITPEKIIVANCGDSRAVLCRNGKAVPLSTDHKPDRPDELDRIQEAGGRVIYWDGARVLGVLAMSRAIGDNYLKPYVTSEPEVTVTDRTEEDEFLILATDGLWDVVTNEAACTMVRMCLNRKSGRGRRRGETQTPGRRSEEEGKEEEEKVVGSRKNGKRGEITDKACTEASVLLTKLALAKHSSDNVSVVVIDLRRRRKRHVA

The chains behind the UniProt entries cited, without tags or fusion partners.
UniProt P49597: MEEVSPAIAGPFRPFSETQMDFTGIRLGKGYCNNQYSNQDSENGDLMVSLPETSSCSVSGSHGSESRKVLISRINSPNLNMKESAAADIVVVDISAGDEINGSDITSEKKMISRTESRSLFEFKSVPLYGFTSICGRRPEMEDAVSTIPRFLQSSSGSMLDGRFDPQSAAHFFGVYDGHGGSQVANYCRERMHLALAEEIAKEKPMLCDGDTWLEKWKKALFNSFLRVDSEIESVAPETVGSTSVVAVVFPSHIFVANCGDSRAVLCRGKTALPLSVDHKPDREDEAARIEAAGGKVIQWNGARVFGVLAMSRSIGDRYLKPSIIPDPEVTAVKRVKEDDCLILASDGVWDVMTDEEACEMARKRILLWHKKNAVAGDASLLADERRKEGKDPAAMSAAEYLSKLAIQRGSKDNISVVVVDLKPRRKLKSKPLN

[4] = biological target: T2, type 2C-A protein phosphatase AHG3 (Arabidopsis) (UniProt P49598); test: as above
T2 sequence: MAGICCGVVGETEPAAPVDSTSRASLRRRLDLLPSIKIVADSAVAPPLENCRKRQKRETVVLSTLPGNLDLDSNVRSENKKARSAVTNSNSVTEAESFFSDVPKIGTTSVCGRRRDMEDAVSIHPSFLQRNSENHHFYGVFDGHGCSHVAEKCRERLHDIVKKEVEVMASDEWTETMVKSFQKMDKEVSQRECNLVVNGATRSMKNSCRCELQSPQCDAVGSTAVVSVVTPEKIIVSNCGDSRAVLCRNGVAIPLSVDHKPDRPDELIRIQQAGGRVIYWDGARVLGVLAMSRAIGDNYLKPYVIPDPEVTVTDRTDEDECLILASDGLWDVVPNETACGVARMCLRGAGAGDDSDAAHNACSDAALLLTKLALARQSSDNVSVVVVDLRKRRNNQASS

[5] = biological target: type 2C-A protein phosphatase ABI1 (Arabidopsis) (UniProt P49597); test: AlphaScreen or HTRF; as a1 but with JFA1 instead of ABA (100 μM in Fig. 2b, dose series in Fig. 2c); signal relative to 1% DMSO
[6] = biological target: type 2C-A protein phosphatase ABI1 (Arabidopsis) (UniProt P49597); test: AlphaScreen or HTRF; as a1 but with pyrabactin instead of ABA (100 μM in Fig. 2b, dose series in Fig. 2c); signal relative to 1% DMSO
[7] = biological target: type 2C-A protein phosphatase ABI1 (Arabidopsis) (UniProt P49597); test: AlphaScreen or HTRF; as a1 but with JFA2 instead of ABA (100 μM in Fig. 2b, dose series in Fig. 2c); signal relative to 1% DMSO
[8] = biological target: type 2C-A protein phosphatase ABI1 (Arabidopsis) (UniProt P49597); test: AlphaScreen or HTRF; biotinylated ABA receptor and FLAG-PP2CA, crude wheat cell-free translation mixtures, without ABA (DMSO); 100 mM Tris-HCl pH 8.0, 0.1% Tween20, 1 mg/mL BSA, 25 °C 1 h; streptavidin donor beads, protein A acceptor beads with anti-FLAG M2; pair = signal at least five times that of DHFR
[9] = biological target: T3, ABA receptor PYL3 (Arabidopsis) (UniProt Q9SSM7); test: AlphaScreen or HTRF; as a9 but with 100 μM ABA
T3 sequence (chain, N-terminal mono-biotinylation (BirA)): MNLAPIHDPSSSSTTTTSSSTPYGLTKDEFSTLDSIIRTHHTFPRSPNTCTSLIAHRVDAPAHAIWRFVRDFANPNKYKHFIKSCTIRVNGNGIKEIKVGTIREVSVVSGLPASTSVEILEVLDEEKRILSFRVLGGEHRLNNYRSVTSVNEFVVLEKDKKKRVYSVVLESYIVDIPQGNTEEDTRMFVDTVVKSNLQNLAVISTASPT

[10] = biological target: T3, ABA receptor PYL3 (Arabidopsis); test: AlphaScreen or HTRF; biotinylated ABA receptor and AGIA-tagged ABA receptor, crude wheat cell-free translation mixtures, without ABA; 14 x 14 matrix; pair = signal at least two times that of DHFR
[11] = biological target: T4, type 2C-A protein phosphatase AHG1 (Arabidopsis) (UniProt Q9FLI3); test: AlphaScreen or HTRF; as a1/a2 (Fig. 1e, absence or presence of 100 μM ABA); the sentence does not tell in which condition the pair was detected
T4 sequence: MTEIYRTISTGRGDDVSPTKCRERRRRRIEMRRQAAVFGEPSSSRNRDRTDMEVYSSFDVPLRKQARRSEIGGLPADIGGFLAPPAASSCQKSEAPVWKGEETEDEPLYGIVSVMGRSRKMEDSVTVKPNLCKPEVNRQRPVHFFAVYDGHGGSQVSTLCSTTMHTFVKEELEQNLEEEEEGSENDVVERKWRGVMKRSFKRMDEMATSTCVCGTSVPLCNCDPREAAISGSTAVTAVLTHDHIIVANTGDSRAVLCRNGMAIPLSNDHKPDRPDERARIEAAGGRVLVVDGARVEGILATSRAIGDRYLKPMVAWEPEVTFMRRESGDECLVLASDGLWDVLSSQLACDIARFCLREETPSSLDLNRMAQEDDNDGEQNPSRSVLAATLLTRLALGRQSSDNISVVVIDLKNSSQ

[12] = biological target: ABA receptor PYL13 (Arabidopsis) (UniProt Q9SN51); test: AlphaScreen or HTRF; as a9 but with 100 μM ABA
[13] = biological target: ABA receptor PYL13 (Arabidopsis) (UniProt Q9SN51); test: AlphaScreen or HTRF; biotinylated ABA receptor and AGIA-tagged ABA receptor, crude wheat cell-free translation mixtures, without ABA; 14 x 14 matrix; pair = signal at least two times that of DHFR
[14] = biological target: T5, ABA receptor PYL10 (Arabidopsis) (UniProt Q8H1R0); test: AlphaScreen or HTRF; as a9 but with 100 μM ABA
T5 sequence (chain, N-terminal mono-biotinylation (BirA)): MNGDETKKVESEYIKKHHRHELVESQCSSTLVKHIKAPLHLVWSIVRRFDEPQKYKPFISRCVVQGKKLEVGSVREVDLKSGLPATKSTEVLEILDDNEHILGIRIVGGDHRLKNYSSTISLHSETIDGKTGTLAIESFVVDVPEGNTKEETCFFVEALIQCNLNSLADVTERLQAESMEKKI

[15] = biological target: T5, ABA receptor PYL10 (Arabidopsis); test: AlphaScreen or HTRF; biotinylated ABA receptor and AGIA-tagged ABA receptor, crude wheat cell-free translation mixtures, without ABA; 14 x 14 matrix; pair = signal at least two times that of DHFR

Measured: binding

B1: ABA receptor PYL11 (receptor, UniProt Q9FJ50 1-161)
chain: METSQKYHTCGSTLVQTIDAPLSLVWSILRRFDNPQAYKQFVKTCNLSSGDGGEGSVREVTVVSGLPAEFSRERLDELDDESHVMMISIIGGDHRLVNYRSKTMAFVAADTEEKTVVVESYVVDVPEGNSEEETTSFADTIVGFNLKSLAKLSERVAHLKL
modifications: N-terminal mono-biotinylation (BirA)
binds: [1] | [2] | [3] | [4] | [5] | [6] | [7] | [8]

B2: ABA receptor PYL12 (receptor, UniProt Q9FJ49 1-159)
chain: MKTSQEQHVCGSTVVQTINAPLPLVWSILRRFDNPKTFKHFVKTCKLRSGDGGEGSVREVTVVSDLPASFSLERLDELDDESHVMVISIIGGDHRLVNYQSKTTVFVAAEEEKTVVVESYVVDVPEGNTEEETTLFADTIVGCNLRSLAKLSEKMMELT
modifications: N-terminal mono-biotinylation (BirA)
binds: [2] | [3] | [8]

B3: ABA receptor PYL3 (receptor, UniProt Q9SSM7 1-209)
chain: MNLAPIHDPSSSSTTTTSSSTPYGLTKDEFSTLDSIIRTHHTFPRSPNTCTSLIAHRVDAPAHAIWRFVRDFANPNKYKHFIKSCTIRVNGNGIKEIKVGTIREVSVVSGLPASTSVEILEVLDEEKRILSFRVLGGEHRLNNYRSVTSVNEFVVLEKDKKKRVYSVVLESYIVDIPQGNTEEDTRMFVDTVVKSNLQNLAVISTASPT
modifications: N-terminal mono-biotinylation (BirA)
binds: [9] | [10]

B4: ABA receptor PYL8 (receptor, UniProt Q9FGM1 1-188)
chain: MEANGIENLTNPNQEREFIRRHHKHELVDNQCSSTLVKHINAPVHIVWSLVRRFDQPQKYKPFISRCVVKGNMEIGTVREVDVKSGLPATRSTERLELLDDNEHILSIRIVGGDHRLKNYSSIISLHPETIEGRIGTLVIESFVVDVPEGNTKDETCYFVEALIKCNLKSLADISERLAVQDTTESRV
modifications: N-terminal mono-biotinylation (BirA)
binds: [11] | [8]

B5: ABA receptor PYL13 (receptor, UniProt Q9SN51 1-164)
chain: MESSKQKRCRSSVVETIEAPLPLVWSILRSFDKPQAYQRFVKSCTMRSGGGGGKGGEGKGSVRDVTLVSGFPADFSTERLEELDDESHVMVVSIIGGNHRLVNYKSKTKVVASPEDMAKKTVVVESYVVDVPEGTSEEDTIFFVDNIIRYNLTSLAKLTKKMMK
modifications: N-terminal mono-biotinylation (BirA)
binds: [12] | [9] | [13] | [10]

B6: ABA receptor PYL5 (receptor, UniProt Q9FLB1 1-203)
chain: MRSPVQLQHGSDATNGFHTLQPHDQTDGPIKRVCLTRGMHVPEHVAMHHTHDVGPDQCCSSVVQMIHAPPESVWALVRRFDNPKVYKNFIRQCRIVQGDGLHVGDLREVMVVSGLPAVSSTERLEILDEERHVISFSVVGGDHRLKNYRSVTTLHASDDEGTVVVESYIVDVPPGNTEEETLSFVDTIVRCNLQSLARSTNRQ
modifications: N-terminal mono-biotinylation (BirA)
binds: [14] | [2] | [4] | [15] | [8]

B7: ABA receptor PYL9 (receptor, UniProt Q84MC7 1-187)
chain: MMDGVEGGTAMYGGLETVQYVRTHHQHLCRENQCTSALVKHIKAPLHLVWSLVRRFDQPQKYKPFVSRCTVIGDPEIGSLREVNVKSGLPATTSTERLELLDDEEHILGIKIIGGDHRLKNYSSILTVHPEIIEGRAGTMVIESFVVDVPQGNTKDETCYFVEALIRCNLKSLADVSERLASQDITQ
modifications: N-terminal mono-biotinylation (BirA)
binds: [4] | [8]

B8: ABA receptor PYL10 (receptor, UniProt Q8H1R0 1-183)
chain: MNGDETKKVESEYIKKHHRHELVESQCSSTLVKHIKAPLHLVWSIVRRFDEPQKYKPFISRCVVQGKKLEVGSVREVDLKSGLPATKSTEVLEILDDNEHILGIRIVGGDHRLKNYSSTISLHSETIDGKTGTLAIESFVVDVPEGNTKEETCFFVEALIQCNLNSLADVTERLQAESMEKKI
modifications: N-terminal mono-biotinylation (BirA)
binds: [4] | [8]

B9: ABA receptor PYL6 (receptor, UniProt Q8S8E3 1-215)
chain: MPTSIQFQRSSTAAEAANATVRNYPHHHQKQVQKVSLTRGMADVPEHVELSHTHVVGPSQCFSVVVQDVEAPVSTVWSILSRFEHPQAYKHFVKSCHVVIGDGREVGSVREVRVVSGLPAAFSLERLEIMDDDRHVISFSVVGGDHRLMNYKSVTTVHESEEDSDGKKRTRVVESYVVDVPAGNDKEETCSFADTIVRCNLQSLAKLAENTSKFS
modifications: N-terminal mono-biotinylation (BirA)
binds: [4]

B10: ABA receptor PYL7 (receptor, UniProt Q1ECF1 1-211)
chain: MEMIGGDDTDTEMYGALVTAQSLRLRHLHHCRENQCTSVLVKYIQAPVHLVWSLVRRFDQPQKYKPFISRCTVNGDPEIGCLREVNVKSGLPATTSTERLEQLDDEEHILGINIIGGDHRLKNYSSILTVHPEMIDGRSGTMVMESFVVDVPQGNTKDDTCYFVESLIKCNLKSLACVSERLAAQDITNSIATFCNASNGYREKNHTETNL
modifications: N-terminal mono-biotinylation (BirA)
binds: [4]

— PMC5844987
